The shares of active, inactive and inconclusive entries below differ from those in the screen. Potencies beside an inconclusive call are fits to weak or partial responses and may not hold up. The source made the active and inactive calls. Calls follow the shape of the dose curve; as a rule, active = well fitted inhibition curve with a large enough effect; inconclusive = small, poorly fitted or top-dose-only effect; inactive = flat fitted curve, though single readings scatter.
Target: Dual specificity protein kinase CLK4 (Homo sapiens) (UniProt Q9HAZ1)
Assay: qHTS Assay for Inhibitors of CDC-like Kinase 4 (ADP-FP Assay) (AID 1795);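 also: recombinant human CLK4 phosphorylating RS repeat peptide at 1 µM ATP; nearly all actives have a fitted effect of over 60% in size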
Conditions: Transcreener ADP fluorescence polarization; series mostly up to 50 µM
Procedure: NIH Molecular Libraries Probe Production Centers Network [MLPCN] NIH Chemical Genomics Center [NCGC] MLPCN Grant: 1R03MH084827-01 Assay Submitter (PI): Tom Misteli NCGC Assay Overview: Clk4 (Invitrogen cat # PV3839) was assayed using ATP and the RS repeat peptide (AnaSpec cat # 61722) as substrates using Transcreener (trade mark), a competitive fluorescence polarization (FP) assay. For the present assay, we used the Orange TranscreenerTM ADP2 (BellBrooks Labs, Madison, Wis) detection system to monitor ADP production in the kinase reaction. […] This allows the ADP tracer to freely rotate leading to a decrease in the observed FP value. The amount of ADP produced can then be calculated using a calibration curve. The positive control for the assay was TG003 (Sigma-Aldrich, cat # 300801-52-9) which is a Clk4 inhibitor [2].
NCGC Assay Protocol Summary: Two uL/well of substrate-buffer solution (100 uM RS peptide, 1 uM ATP, 25 mM Tris pH7.5, 10 mM MgCl2, 0.5 mM EGTA, 2.5 mM DTT, 0.01% Triton X-100 final concentration) was dispensed into 1,536-well assay plates (Greiner, solid black medium-binding plates) with Aurora Discovery BioRAPTR Flying Reagent Dispenser (FRD; Beckton-Dickenson). Using a Kalypsys pin tool equipped with a 1,536-pin tool, 23 nL of compound solution was transferred to the assay plate. Two uL/well Clk4-buffer solution (6.25 nM Clk4, 25 mM Tris pH 7.5, 10 mM MgCl2, 0.5 mM EGTA, 2.5 mM DTT, 0.01% Triton X-100, final concentration) was then added using the FRD yielding a total kinase reaction volume of 4 uL/ well. Then 4 uL/well of detection mixture (4 nM orange fluorescent tracer, 1 ug/mL ADP antibody, final concentration) was then added after an hour and the polarization signal was measured using the EnVision plate reader (PerkinElmer, Waltham, MA) after 30 min of room temperature incubation using the following filters and program settings: BODIPY TMR FP dual Enh mirror (barcode 682); BODIPY-TMR 531 (barcode 105) excitation; BODIPY-TMR FP P/S polarized 595 nm filters (barcodes 210 and 211, respectively); 100% light; 150 flashes; 1.35 G-factor; Detector gains were 685 for the 1st detector; 630 for the 2nd detector.
Potency is read from the fitted curve at half-maximal effect; tags tell the direction and shape of the fitted curve.

UniProt Q9HAZ1, sequence (Q9HAZ1 whole entry, looked up): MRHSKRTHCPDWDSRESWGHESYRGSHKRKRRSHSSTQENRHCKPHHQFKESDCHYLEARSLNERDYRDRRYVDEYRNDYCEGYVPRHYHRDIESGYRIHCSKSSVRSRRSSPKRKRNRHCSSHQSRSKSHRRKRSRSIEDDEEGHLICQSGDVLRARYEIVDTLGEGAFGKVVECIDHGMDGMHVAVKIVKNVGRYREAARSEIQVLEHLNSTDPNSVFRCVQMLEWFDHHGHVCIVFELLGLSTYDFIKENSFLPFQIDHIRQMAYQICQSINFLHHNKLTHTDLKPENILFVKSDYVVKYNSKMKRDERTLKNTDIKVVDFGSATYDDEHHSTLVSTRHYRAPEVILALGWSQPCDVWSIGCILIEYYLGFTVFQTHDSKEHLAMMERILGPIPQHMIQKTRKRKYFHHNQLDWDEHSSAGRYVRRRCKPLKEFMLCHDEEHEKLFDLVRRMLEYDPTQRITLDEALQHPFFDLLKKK

Potency, active:
Clc1ccccc1-c1nc(-n2ccnc2)c2ccccc2n1 1 µM
c1ccc(CNc2nc(-c3cccnc3)nc3ccccc23)cc1 5.01 µM
COc1cccc(-c2ccc3ncnc(NCc4cnc(C)cn4)c3c2)c1 1.41 µM
COc1ccc2[nH]cc(CCNc3ccnc(-c4cccc(C#N)c4)n3)c2c1 8.91 µM
COc1cccc(-c2ccc3ncnc(N(C)Cc4ccco4)c3c2)c1 0.562 µM
COc1ccc2[nH]cc(CCNc3ncncc3-c3ccc4c(c3)OCO4)c2c1 10 µM
CS(=O)(=O)Nc1cccc(-c2ccc3ncnc(N4CCOCC4)c3c2)c1 7.08 µM
COc1ccc2[nH]cc(CCNc3ncnc4ccc(-c5ccoc5)cc34)c2c1 0.562 µM
CN1CCN(c2ncnc3ccc(-c4ccoc4)cc23)CC1 0.447 µM
Cc1ccccc1-c1ccc2ncnc(N(C)Cc3ccco3)c2c1 12.6 µM
CN(C)C(=O)c1ccc(-c2ccc3ncnc(NCc4cccs4)c3c2)cc1 14.1 µM
CN1CCN(c2nc(-c3ccc4c(c3)OCO4)nc3ccccc23)CC1 14.1 µM
Cc1ccccc1-c1ccc2ncnc(-n3ccnc3)c2c1 3.98 µM
Fc1ccc(Nc2ncncc2-c2ccoc2)cc1 5.01 µM

Potency, inactive:
O=c1cnc2cnc(Oc3ccccc3)nc2n1C1CC1
COc1ccc2[nH]cc(CCNc3ncncc3-c3ccccc3C(F)(F)F)c2c1
CCNc1ncc2nc(-c3ccc(F)cc3)c(=O)n(-c3ccc(OC)cc3)c2n1
Cn1c(=O)c(-c2ccccc2)nc2cnc(Nc3ccccc3)nc21
CNc1cc(-c2ccccc2C)ncn1
COc1ccc2[nH]cc(CCNc3nc(-c4ccc(N(C)C)cc4)nc4ccccc34)c2c1
O=c1c(-c2cc(F)cc(F)c2)nc2cnc(N3CCNCC3)nc2n1C1CC1
CN1CCN(c2ncc3nc(-c4cccc(C#N)c4)c(=O)n(CCC#N)c3n2)CC1

Potency, inconclusive:
N#Cc1cccc(-c2ccc3ncnc(NCc4ccccc4)c3c2)c1 1.12 µM [falling, full curve]
CN1CCN(c2ncnc3ccc(-c4cccc(C#N)c4)cc23)CC1 12.6 µM [falling, partial curve]
CCNc1ncc2nc(C)c(=O)n(CCc3ccccc3)c2n1 3.16 µM [falling, full curve]
Cc1cccc(CNc2cc(-c3ccccc3Cl)ncn2)c1 14.1 µM [falling, partial curve]
COc1ccc2[nH]cc(CCNc3ncncc3-c3ccccc3C)c2c1 12.6 µM [falling, partial curve]
COc1cccc(-c2ccc3ncnc(NCc4ccc(OC)cc4OC)c3c2)c1 1.58 µM [falling, full curve]
COc1cccc(Nc2ncc3nc(C)c(=O)n(C[C@H]4CCCO4)c3n2)c1 12.6 µM [falling, partial curve]
Cc1ccccc1-c1nc(N2CCNCC2)c2ccccc2n1 25.1 µM [falling, single point]
COc1cccc(-c2nc(NCCN3CCOCC3)c3ccccc3n2)c1 11.2 µM [falling, partial curve]
c1ccc(CNc2ncncc2-c2ccoc2)cc1 14.1 µM [falling, partial curve]
CN(C)C(=O)c1ccc(-c2cc(NCc3cccs3)ncn2)cc1 12.6 µM [falling, partial curve]
COCCNc1nc(-c2ccc(C(=O)N(C)C)cc2)nc2ccccc12 11.2 µM [falling, partial curve]
Clc1ccccc1-c1ccc2ncnc(NCCN3CCOCC3)c2c1 8.91 µM [falling, partial curve]
O=c1c(-c2cc(F)cc(F)c2)nc2cnc(N3CCNCC3)nc2n1-c1ccccc1 15.8 µM [falling, partial curve]
Cc1cccc(CNc2cc(-c3c(C)noc3C)ncn2)c1 12.6 µM [falling, partial curve]
COc1ccc2[nH]cc(CCNc3ncncc3-c3ccccc3OC)c2c1 11.2 µM [falling, partial curve]
COc1ccccc1-c1ccc2ncnc(NCCN3CCOCC3)c2c1 12.6 µM [falling, partial curve]
COc1ccccc1-c1ccc2ncnc(Nc3ccccc3)c2c1 14.1 µM [falling, partial curve]
